Results from PubChem BioAssay AID2451 (National Center for Advancing Translational Sciences (NCATS), 2010).
In all, about 290,000 compounds went through this assay and about 2,100 (0.72%) were called active. This list was built around the results that the source calls inconclusive (neither active nor inactive); the mix of calls is not that of the screen. Calls follow the shape of the dose curve; as a rule, active = well fitted inhibition curve with a large enough effect; inconclusive = small, poorly fitted or top-dose-only effect, or effect the other way; inactive = flat fitted curve, though single readings scatter. A potency beside an inconclusive call is a rough fit, not a confirmed value.
% is scaled to controls: 0 for no effect and ±100 for the full control effect; potency is read from the fitted curve at half-maximal effect; tags tell the direction and shape of the fitted curve.
Also: nearly all actives have a fitted effect of over 55% in size.

These molecules were tested against Fructose-bisphosphate aldolase (Giardia intestinalis (strain ATCC 50803 / WB clone C6)) (UniProt A8B2U2) (assay: qHTS Assay for Inhibitors of Fructose-1,6-bisphosphate Aldolase from Giardia Lamblia). Details: purified Giardia FBPA; activity, negative = inhibition: at 59.6 µM (top of the series) unless noted.
Sequence of UniProt A8B2U2 (A8B2U2 whole entry, looked up): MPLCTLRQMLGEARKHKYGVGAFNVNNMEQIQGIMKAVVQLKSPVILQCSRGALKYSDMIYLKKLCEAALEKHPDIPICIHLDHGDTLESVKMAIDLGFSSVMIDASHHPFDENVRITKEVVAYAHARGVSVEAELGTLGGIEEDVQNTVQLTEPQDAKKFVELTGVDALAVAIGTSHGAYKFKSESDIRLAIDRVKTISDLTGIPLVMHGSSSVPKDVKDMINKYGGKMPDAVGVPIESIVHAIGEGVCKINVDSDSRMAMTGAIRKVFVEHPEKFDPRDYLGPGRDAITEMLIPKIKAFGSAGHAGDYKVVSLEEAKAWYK
Outline: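 40 nM FBPA preincubated 10 min at RT with compound (up to 57.5 uM final), then substrate plus GAPDH/TPI/NAD/arsenate coupling and diaphorase/resazurin added. Fluorescence read after 20 min at RT, 525/598 nm.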
`COc1ccccc1NC(=S)Nc1cccc2cnccc12` was tested, and the Potency was inconclusive: 15.8 µM [inhibitor, partial curve]. With `Cn1c(CO)cnc1SCc1ccc([N+](=O)[O-])cc1` the Potency was inconclusive: 17.7 µM [inhibitor, partial curve]. For `Cc1nc(C(=O)NNC(=O)c2ccc(Cl)cc2)cs1`, the Potency was active: 17.7 µM. `COc1ccc(OC)c(C2=NOC(C(=O)NCc3ccco3)C2)c1` (stereo not given) was tested, and the “activity, negative = inhibition” value was inactive: -7.03%. `O=C(O)CCN1CC2([N+](=O)[O-])C=CC(=O)C([N+](=O)[O-])(C1)C2CC(=O)c1ccccc1` (stereo not given) was tested, and the Potency was inconclusive: 5.61 µM [inhibitor, partial curve]. With `COc1ccc(C(=O)NCc2ccc3[nH]c(C)cc3c2)cc1OC` the Potency was inconclusive: 15.8 µM [inhibitor, partial curve]. For `Cc1cc2cc(C(c3nnnn3CC3CCCO3)N3CCCc4ccccc43)c(=O)[nH]c2cc1C` (stereo not given), the Potency was active: 3.97 µM. With `COc1ccc(/C=N/N=C2/CC(C)(C)Cc3n[nH]c(=O)cc32)cc1` the Potency was inconclusive: 15.8 µM [inhibitor, single point]. `COc1ccc(C(=O)NC(=S)Nc2ccccc2[N+](=O)[O-])cc1OC` was tested, and the Potency was inconclusive: 15.8 µM [inhibitor, single point]. `COc1cc(CN2CCN(Cc3ccc(C(F)(F)F)cc3)CC2)cc(OC)c1OC` was tested, and the Potency was inconclusive: 14.1 µM [inhibitor, partial curve]. In the case of `O=C(Nc1ccc(N2CCCCC2)c(Cl)c1)c1cccnc1`, the “activity, negative = inhibition” value is reported as inactive: -9.66%. In the case of `O=C(CCSc1ccccc1)Nc1ncccn1`, the “activity, negative = inhibition” value is reported as inactive: -0.511%. With `Cn1cc(/C=C/C(=O)c2ccccc2)c2ccccc21` the “activity, negative = inhibition” value was inactive: -29.9%. For `C=CCNC(=S)Nc1ccc(OC(=O)Nc2ccc(Cl)c(Cl)c2)cc1`, the Potency was inconclusive: 6.29 µM [inhibitor, partial curve]. `CC(=O)Nc1ccc(NC(=O)C/C(C)=N/NC(N)=S)cc1` was tested, and the Potency was active: 15.8 µM. With `Oc1ccc(NCc2ccccc2OCc2ccccc2F)cc1` the Potency was active: 12.6 µM. `Cc1ccc(OCCCCn2cnc3ccccc32)c(C)c1` was tested, and the Potency was inconclusive: 14.1 µM [inhibitor, partial curve]. With `Cc1ccc2nc(-c3sc4nc(C)ccc4c3N)[nH]c2c1` the Potency was inconclusive: 5.61 µM [inhibitor, full curve, poor fit]. In the case of `COc1ccccc1OCCNC(=O)c1ccc2c(c1)CCC2`, the activity, negative = inhibition is reported as inconclusive: 44.6% [activator]. `CCOC(=O)C1CCCCN1Cc1cccc(F)c1` (stereo not given) was tested, and the Potency was inconclusive: 25.1 µM [inhibitor, partial curve, poor fit]. For `Cc1ccc2nc(N3C(=O)CNC3=S)sc2c1`, the Potency was inconclusive: 17.7 µM [inhibitor, single point]. `CCN(Cc1ccccc1)S(=O)(=O)c1c(C)[nH]c(C)c1C(=O)N1CCCCC1` was tested, and the “activity, negative = inhibition” value was inactive: 2.96%. In the case of `CC1(C)CC(=O)C2=C(C1)OC1=C(C2)C(=O)CC(C)(C)C1`, the “activity, negative = inhibition” value is reported as inactive: -0.325%. `O=C(COc1ccc(Cl)cc1)N1CCN(Cc2ccc([N+](=O)[O-])cc2)CC1` was tested, and the Potency was active: 22.3 µM. `CCCCN(C)CCNC(=O)CSCc1ccc(C)cc1` was tested, and the Potency was inconclusive: 19.9 µM [inhibitor, partial curve]. With `COc1cc2c(cc1OC)-c1c(OC)c(OC)cc3c1[C@H](C2)N(C)CC3` the Potency was inconclusive: 0.5 µM [inhibitor, full curve]. With `COC(=O)c1cncn1C(C)c1ccccc1` (stereo not given) the “activity, negative = inhibition” value was inactive: -24.7%. With `COc1ccc(CNCCc2c[nH]c3ccccc23)c(OC)c1C` the Potency was inconclusive: 12.6 µM [inhibitor, partial curve]. `O=C(O)c1ccc(/C=C2\SC(=S)N(NC(=O)c3ccccc3[N+](=O)[O-])C2=O)cc1` was tested, and the Potency was inconclusive: 14.1 µM [inhibitor, partial curve]. For `COc1ccc(NC(=O)CSc2nnnn2C2CCCCC2)cc1`, the “activity, negative = inhibition” value was inactive: 11.4%. With `O=C(Nc1cccc(Oc2ccc(C(=O)O)c(C(=O)O)c2)c1)c1ccc(-c2ccccc2)cc1` the Potency was inconclusive: 17.7 µM [activator, single point]. `COc1ccc(C2CC(=O)N3CN(c4ccccc4F)CSC3=C2C#N)cc1OC` (stereo not given) was tested, and the Potency was active: 2.81 µM. `Clc1ccc(C(CCN2CCCC2)Cc2ccccc2)cc1` (stereo not given) was tested, and the Potency was inconclusive: 14.1 µM [inhibitor, partial curve]. For `CCS(=O)(=O)n1nc(-c2ccco2)nc1SC`, the Potency was active: 28.2 µM. With `COC(=O)C1=C(C)N(C)C(=O)NC1c1c(OC)ccc2ccccc12` (stereo not given) the “activity, negative = inhibition” value was inactive: -5.95%. With `Cc1cc(C)nc(NS(=O)(=O)c2ccc(NC(=O)c3ccc(S(=O)(=O)N4CC(C)OC(C)C4)cc3)cc2)n1` (stereo not given) the “activity, negative = inhibition” value was inactive: 9.77%. For `COc1ccc(C)cc1Nc1n[n+](-c2ccccc2)c(-c2c(Cl)cccc2Cl)s1`, the Potency was inconclusive: 7.08 µM [inhibitor, partial curve]. In the case of `Clc1cccc(CN2CCCCCC2)c1`, the Potency is reported as inconclusive: 35.5 µM [inhibitor, partial curve]. In the case of `Nc1n[nH]c2cc(=O)n(-c3cccc(C(F)(F)F)c3)nc12`, the “activity, negative = inhibition” value is reported as inactive: 4.09%. `COc1ccccc1CCC(=O)Nc1ncc(C)s1` was tested, and the “activity, negative = inhibition” value was inactive: 2.26%. In the case of `Cc1ccc(NC(=O)c2c(C)nc(Nc3nc4ccccc4o3)nc2C)cc1`, the “activity, negative = inhibition” value is reported as inactive: -1.89%. For `Cc1ccccc1OCC(O)CN1CCN(CC(O)COc2ccccc2C)CC1` (stereo not given), the “activity, negative = inhibition” value was inactive: -0.317%. For `O=c1oc2ccccc2c(N2CCCC2)c1CN1CCCC1`, the “activity, negative = inhibition” value was inactive: 1.65%. `CC(C)(C)Nc1cccccc1=O` was tested, and the Potency was inconclusive: 17.7 µM [inhibitor, partial curve]. `O=[N+]([O-])c1ccccc1NC(=S)N/N=C/c1ccc(O)c(O)c1` was tested, and the Potency was inconclusive: 17.7 µM [inhibitor, partial curve]. `O=C1C=C(O)c2cccc(O)c2C1=O` was tested, and the Potency was active: 5.61 µM. `CCCCn1c(=O)c(-[n+]2ccccc2)c([O-])c2ccccc21` was tested, and the Potency was inconclusive: 15.8 µM [inhibitor, partial curve]. `COc1ccc(C(=O)NC(=S)Nc2ccc(S(=O)(=O)Nc3cc(OC)nc(OC)n3)cc2)cc1` was tested, and the Potency was inconclusive: 14.1 µM [inhibitor, partial curve]. In the case of `COc1ccccc1OCC(=O)NNC(=S)NC(=O)c1ccco1`, the Potency is reported as inconclusive: 17.7 µM [activator, partial curve]. In the case of `CC1CCC(NC(=O)N(CCCl)N=O)CC1` (stereo not given), the “activity, negative = inhibition” value is reported as inactive: -2.95%. `CCN(CC)CCN(C(=O)c1ccc(S(=O)(=O)N(C)C2CCCCC2)cc1)c1nc2c(C)cccc2s1` was tested, and the Potency was inconclusive: 35.5 µM [inhibitor, single point]. `O=C1C(=O)c2ccccc2-c2ccccc21` was tested, and the Potency was active: 0.141 µM. `O=c1[nH][nH]c(=S)n1-c1ccccc1C(F)(F)F` was tested, and the Potency was active: 17.7 µM. `C/C(=N\N1C(=O)CSC1=S)c1ccc(Br)cc1` was tested, and the Potency was active: 15.8 µM. In the case of `O=C(Nc1nnc(SCc2ccc(F)cc2)s1)c1ccc2ncsc2c1`, the Potency is reported as inconclusive: 15.8 µM [activator, single point]. With `O=C(NCCc1ccc(Cl)cc1)C1CCN(S(=O)(=O)c2ccc(Br)s2)CC1` the “activity, negative = inhibition” value was inactive: 3.67%. `O=C(O)c1ccc(Br)cn1` was tested, and the Potency was inconclusive: 17.7 µM [inhibitor, partial curve]. With `Cc1ccc(C(=O)N/C(=C/c2ccco2)C(=O)N2CCC(C)CC2)cc1` the “activity, negative = inhibition” value was inactive: -16.3%. For `CCN1CCN(CC(=O)Nc2cc3c(cc2C(C)=O)OCO3)CC1`, the Potency was active: 12.6 µM. For `O=C(Nc1cccn(Cc2c(F)cccc2Cl)c1=O)NC1CCCCC1`, the Potency was inconclusive: 19.9 µM [inhibitor, single point]. In the case of `NS(=O)(=O)c1cccc(NC(=O)CC2(CC(=O)O)CCCC2)c1`, the “activity, negative = inhibition” value is reported as inactive: 4.02%. For `CCCCCOc1ccc(C2NC(=O)NC2=O)cc1` (stereo not given), the “activity, negative = inhibition” value was inactive: 0.182%. In the case of `CN1CCN(c2ccc(Nc3c4ccccc4nc4ccccc34)cc2)CC1`, the Potency is reported as inconclusive: 15.8 µM [inhibitor, single point]. For `COCCN(CCOC)C(=S)Nc1ccccc1`, the “activity, negative = inhibition” value was inactive: 3.41%. With `CC1(c2ccc3ccccc3c2)NC(=O)N(CC(=O)Nc2cccc(S(=O)(=O)N3CCOCC3)c2)C1=O` (stereo not given) the “activity, negative = inhibition” value was inactive: -0.704%. For `Cc1c(F)c(F)c(COC(=O)C2C(/C=C(\Cl)C(F)(F)F)C2(C)C)c(F)c1F` (stereo not given), the “activity, negative = inhibition” value was inactive: -0.485%. In the case of `C/C(CC1CC(C)(C)OC1=O)=N\NC(N)=S` (stereo not given), the Potency is reported as active: 19.9 µM. In the case of `Cc1oc(-c2ccc(Cl)cc2)nc1CS(=O)CC(=O)N1CCC2(CC1)OCCO2` (stereo not given), the “activity, negative = inhibition” value is reported as inactive: -4.6%. With `COc1ccc(/C=N/NC(=S)NC2CCS(=O)(=O)C2)cc1` (stereo not given) the Potency was inconclusive: 11.2 µM [inhibitor, partial curve]. For `Cc1ccc(NC(=O)c2ccc(-n3cccn3)c([N+](=O)[O-])c2)cc1`, the Potency was inconclusive: 15.8 µM [inhibitor, single point]. In the case of `COc1ccc(C(=O)NC(=S)SCC(=O)O)cc1`, the Potency is reported as inconclusive: 31.5 µM [inhibitor, single point]. `CCc1ccc(CNc2ccc(O)cc2)cc1` was tested, and the Potency was active: 3.97 µM. In the case of `COC(=O)/C=C1\S/C(=N\N=C\CC(=O)OC)NC1=O`, the Potency is reported as active: 15.8 µM. With `CCCn1c(SCC(=O)NC(=O)NCc2ccco2)n[nH]c1=O` the “activity, negative = inhibition” value was inactive: -14.7%. In the case of `COc1ccc(C(=O)C=CNNC(=O)c2ccc(Cl)cc2)cc1`, the “activity, negative = inhibition” value is reported as inactive: 15.7%. With `CCN(CC)C(=S)NC(=O)c1cc(OC)c(OC)c(OC)c1` the Potency was active: 17.7 µM. `CCc1ccc(Nc2n[n+](C)c(-c3ccncc3)s2)cc1` was tested, and the Potency was inconclusive: 28.2 µM [inhibitor, single point]. For `CCCCN(CC)S(=O)(=O)c1ccc(C(=O)Nc2nnc(COC)o2)cc1`, the Potency was inconclusive: 25.1 µM [inhibitor, single point]. For `Nc1c(C(=O)NCc2ccc3c(c2)OCO3)c2nc3ccccc3nc2n1CCCN1CCOCC1`, the Potency was inconclusive: 1.26 µM [inhibitor, full curve, poor fit]. With `O=C1c2ccccc2C(=O)c2c([N+](=O)[O-])ccc(O)c21` the Potency was inconclusive: 0.5 µM [inhibitor, full curve].
